PubChem BioAssay AID602340 (Broad Institute, 2012)
About 2,600 (0.79%) of roughly 330,000 compounds were called active. Inconclusive means that the source gave no clear call. Such entries were picked first, then a sample of the others.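 The calls were made as follows: active = mean ATP rescue above about 67%, or every replicate alone reaching that limit (limit read from the data, passing the limit was not always enough); inconclusive = no clear call, values can overlap the other calls; inactive = mean under the limit and some replicate under it.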

assay: suppressors of statin myotoxicity in C2C12 myotubes, primary screen, cell-based, single point, plate reader (AID 602340); conditions: C2C12 myotubes + simvastatin, ATP luminescence, 48 h; at 7.49 µM; hits give high values; scaled: DMSO 0, geranylgeraniol control 100;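 also: myotubes were challenged with 10 µM simvastatin during compound exposure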

Structure (SMILES)	rescue of ATP level
COCC(=O)N1[C@@H](CO)[C@@H]2c3ccccc3N(C(=O)c3cccnc3)C[C@@H]21	inactive: -8.16%
Cc1ccc(S(=O)(=O)N(C)C[C@@H]2Oc3ccc(NC(=O)Cn4cnnn4)cc3CC(=O)N([C@@H](C)CO)C[C@H]2C)cc1	inactive: -11.2%
COC(=O)c1c(NC(=O)c2ccc(Br)s2)sc2c1CCC2	inconclusive: 69.4%
COC(=O)c1c(C)oc2ccc(NS(=O)(=O)c3cc(OC)ccc3OC)cc12	active: 121%
CN(C)S(=O)(=O)c1ccc(C(=O)OCC(=O)NCc2ccccc2)cc1	inactive: -4.47%
O=C(N[C@H]1CC[C@H](CCn2cc(C3(O)CCCC3)nn2)O[C@H]1CO)C1CCC1	inactive: 2.85%
CCc1ccccc1NC(=O)CCN1C(=O)c2ccccc2C1=O	active: 133%
C[C@H](CO)N1C[C@H](C)[C@@H](CN(C)Cc2ccc3c(c2)OCO3)Oc2ccc(NS(=O)(=O)c3cccs3)cc2CC1=O	inactive: 59.3%
Cc1ccc(Cl)cc1N(CC(=O)NC1CCCC1)C(=O)c1csnn1	inconclusive: 68.7%
CCOC(=O)Nc1ccc(C)cc1Br	active: 108%
CCC1CCCCN1CCNC(=O)CNS(=O)(=O)c1ccc2nc(C)sc2c1 (stereo not drawn)	inactive: -7.49%
O=C(N[C@@H]1CC[C@H](CCNC(=O)C2CCCCC2)O[C@@H]1CO)c1ccccn1	inactive: -10.9%
CC(C)NC(=O)COC(=O)c1ccc(Oc2ccccc2)cc1	inactive: 7.86%
CC1(C)CC(NC(=O)COc2ccccc2Cl)CC(C)(C)N1	inactive: 0.624%
O=C(OCn1nnc2ccccc2c1=O)c1cc(-c2ccccc2Cl)nc2ccccc12	inconclusive: 71.9%
Cc1cc(C)c(NC2=NS(=O)(=O)c3ccccc32)c(C)c1	inconclusive: 69.1%
Fc1ccc2nc(N3CCCC3)sc2c1	inconclusive: -0.845%
CN(C)S(=O)(=O)N1CCCN(S(=O)(=O)N(C)C)CC1	inactive: -0.227%
C[C@H]1CN([C@@H](C)CO)C(=O)c2cccc(NC(=O)c3ccc(-c4nccs4)cc3)c2O[C@@H]1CN(C)CC1CCCCC1	inconclusive: 75.9%
COc1cc2c(cc1OC)C1=C(C#N)CCC(=O)N1CC2	inconclusive: 79%
O=C(NCCC1=CCCCC1)C1COc2ccccc2O1 (stereo not drawn)	active: 146%
COc1ccc(-c2cnc3c(c2)C(=O)N([C@H](C)CO)C[C@H](C)[C@H](CN(C)S(=O)(=O)c2ccc(C)cc2)O3)cc1	inconclusive: 88.2%
COc1ccc(CN(C)C(=O)c2ccc3ccccc3n2)cc1F	inconclusive: 79.8%
